{
  "source": "paper PMC4336329",
  "about": "(PLoS ONE, 2015)",
  "note": "About 14,000 (4.5%) of roughly 310,000 compounds showed an effect of 50% or more. Effects have a minus sign here. The list shows a part of the results.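 Note: peak tail current of the secondary pulse compared with the same well before compound.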",
  "data": [
    {"molecular_target": "human ether-à-go-go-related gene (hERG) potassium channel (human, UniProt Q12809)", "sequence (Q12809 whole entry, looked up)": "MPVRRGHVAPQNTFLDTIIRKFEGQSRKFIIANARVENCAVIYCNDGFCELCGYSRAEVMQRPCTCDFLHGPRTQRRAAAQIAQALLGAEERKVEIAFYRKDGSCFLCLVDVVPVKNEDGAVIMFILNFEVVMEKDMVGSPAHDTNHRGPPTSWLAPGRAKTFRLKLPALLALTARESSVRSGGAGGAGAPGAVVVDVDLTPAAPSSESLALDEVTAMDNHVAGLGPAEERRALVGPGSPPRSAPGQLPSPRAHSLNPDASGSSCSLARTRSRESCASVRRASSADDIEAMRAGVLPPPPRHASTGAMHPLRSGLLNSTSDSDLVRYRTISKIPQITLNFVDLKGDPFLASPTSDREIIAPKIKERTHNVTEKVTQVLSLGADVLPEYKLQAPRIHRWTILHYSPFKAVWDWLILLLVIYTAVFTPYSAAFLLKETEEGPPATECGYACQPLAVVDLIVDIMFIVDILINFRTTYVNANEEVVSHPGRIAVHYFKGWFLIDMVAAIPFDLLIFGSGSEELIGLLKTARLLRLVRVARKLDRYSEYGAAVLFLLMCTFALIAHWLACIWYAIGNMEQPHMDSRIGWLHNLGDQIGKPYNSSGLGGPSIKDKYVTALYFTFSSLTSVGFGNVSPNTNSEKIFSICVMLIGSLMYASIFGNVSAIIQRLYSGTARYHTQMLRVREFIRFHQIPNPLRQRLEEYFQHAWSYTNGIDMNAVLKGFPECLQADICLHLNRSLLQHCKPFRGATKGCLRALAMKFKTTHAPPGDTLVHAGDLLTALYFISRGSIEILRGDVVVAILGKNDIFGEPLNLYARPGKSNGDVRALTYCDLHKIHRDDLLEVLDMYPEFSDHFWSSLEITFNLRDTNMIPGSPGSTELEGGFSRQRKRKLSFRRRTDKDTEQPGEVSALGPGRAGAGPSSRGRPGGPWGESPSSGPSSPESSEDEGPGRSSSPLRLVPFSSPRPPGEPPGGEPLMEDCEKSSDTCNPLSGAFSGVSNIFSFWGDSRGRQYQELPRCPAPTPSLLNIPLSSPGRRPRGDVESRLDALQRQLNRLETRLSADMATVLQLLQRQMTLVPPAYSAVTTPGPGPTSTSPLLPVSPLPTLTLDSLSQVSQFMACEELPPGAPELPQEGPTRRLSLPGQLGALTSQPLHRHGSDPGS", "assay": "primary screen, population patch clamp on CHO cells stably expressing hERG", "units": {"hERG current change (%, negative = inhibition) at 10uM": "%"}, "values": [
      {"molecule": "CCOc1ccc(CCNC(=O)COC(=O)c2ccc(Cl)nc2)cc1OCC", "hERG current change (%, negative = inhibition) at 10uM": 6.84},
      {"molecule": "CCOc1ccc(N(C(C)C(=O)Nc2ccc(OC)cc2)S(C)(=O)=O)cc1", "note": "(stereo not drawn)", "hERG current change (%, negative = inhibition) at 10uM": -7.19},
      {"molecule": "COc1cc(C(=O)NCC2CCCO2)ccc1OCc1ccccc1", "note": "(stereo not drawn)", "hERG current change (%, negative = inhibition) at 10uM": -2.26},
      {"molecule": "CCOC(=O)c1c(NC(=O)C2CCCN(S(=O)(=O)c3ccccc3)C2)sc2c1CCCC2", "note": "(stereo not drawn)", "hERG current change (%, negative = inhibition) at 10uM": -3.85},
      {"molecule": "Cc1cc2c(cc1C)N(C(=O)CSC1=NCCS1)C(C)(C)c1ssc(=S)c1-2", "hERG current change (%, negative = inhibition) at 10uM": -1.12},
      {"molecule": "Cc1ccc(Cl)cc1NC(=O)NCCN1CCCCC1", "hERG current change (%, negative = inhibition) at 10uM": -24.2},
      {"molecule": "COc1ccc(C2SCC(=O)N2C)cc1", "note": "(stereo not drawn)", "hERG current change (%, negative = inhibition) at 10uM": 1.55},
      {"molecule": "O=C1CCC(C(=O)N2CCSCC2)CN1CCc1cccc(F)c1", "note": "(stereo not drawn)", "hERG current change (%, negative = inhibition) at 10uM": 13.8},
      {"molecule": "Cc1ccc(C(=O)NCCCNC(=O)c2ccccc2C)cn1", "hERG current change (%, negative = inhibition) at 10uM": 4.94},
      {"molecule": "COc1ccccc1CCc1nnc(CCC(=O)NC(C)Cc2cccs2)o1", "note": "(stereo not drawn)", "hERG current change (%, negative = inhibition) at 10uM": -12.6},
      {"molecule": "Cc1nccn1CCCNC(=O)CC1C(=O)NCCN1Cc1ccc(F)cc1Cl", "note": "(stereo not drawn)", "hERG current change (%, negative = inhibition) at 10uM": 18.6},
      {"molecule": "Cc1ccc(NC(=O)N2CCc3ccccc3C2)c(C)c1", "hERG current change (%, negative = inhibition) at 10uM": 1.45},
      {"molecule": "Cc1onc(-c2ccccc2)c1C(=O)Nc1cccc2nsnc12", "hERG current change (%, negative = inhibition) at 10uM": 13.4},
      {"molecule": "CCN(CCCC(=O)c1ccc(F)cc1)CCc1ccccc1.Cl", "hERG current change (%, negative = inhibition) at 10uM": -84.5},
      {"molecule": "COC(=O)c1ccc(COc2ccccc2/C=C(\\C#N)C(=O)Nc2ccc(C)cc2C)cc1", "hERG current change (%, negative = inhibition) at 10uM": -11.1},
      {"molecule": "COc1cccc(C2Nc3cc(Cl)c(S(N)(=O)=O)cc3S(=O)(=O)N2)c1", "note": "(stereo not drawn)", "hERG current change (%, negative = inhibition) at 10uM": 2.57},
      {"molecule": "COC(=O)C1=C(c2ccc(OC)c(OC)c2)C[C@@H]2CC[C@H]1N2C(=O)NCCOc1ccc(OC)cc1", "hERG current change (%, negative = inhibition) at 10uM": 7.33},
      {"molecule": "Cc1ncsc1C(=O)N1N=C2/C(=C/c3ccccc3)CCCC2C1c1ccccc1", "note": "(stereo not drawn)", "hERG current change (%, negative = inhibition) at 10uM": -0.298},
      {"molecule": "Cc1cc(NC2C3CC4CC(C3)CC2C4)n2ncnc2n1", "note": "(stereo not drawn)", "hERG current change (%, negative = inhibition) at 10uM": -48},
      {"molecule": "CCc1ccc(N(CC(=O)Nc2sc3c(c2C(=O)OC)CCCC3)S(C)(=O)=O)cc1", "hERG current change (%, negative = inhibition) at 10uM": 6.65},
      {"molecule": "S=c1[nH]nc(-c2cccs2)n1/N=C/c1cn(-c2ccccc2)nc1-c1cccs1", "hERG current change (%, negative = inhibition) at 10uM": 27.4},
      {"molecule": "CCC(=O)Nc1nc2ccccc2n1CCN(C)C", "hERG current change (%, negative = inhibition) at 10uM": -0.556},
      {"molecule": "O=C(Nc1nnc(-c2ccco2)o1)c1ccc([N+](=O)[O-])s1", "hERG current change (%, negative = inhibition) at 10uM": 12.6},
      {"molecule": "COc1cccc(OC)c1C(=O)Nn1c(C2CCC2)nc2ccccc2c1=O", "hERG current change (%, negative = inhibition) at 10uM": 10.4},
      {"molecule": "O=C(NC1CCCCC1NC(=O)c1cccs1)c1cccs1", "note": "(stereo not drawn)", "hERG current change (%, negative = inhibition) at 10uM": 7.76},
      {"molecule": "CCc1nn2c(N3CCOCC3)cc(C)nc2c1-c1ccc(F)cc1", "hERG current change (%, negative = inhibition) at 10uM": 0.767},
      {"molecule": "O=C(OCn1nnc2ccccc2c1=O)C12CC3CC(CC(O)(C3)C1)C2", "hERG current change (%, negative = inhibition) at 10uM": 13.5},
      {"molecule": "CN(C)S(=O)(=O)c1ccc(N2CCCC2)c(C(=O)Nc2ccccc2OC(F)F)c1", "hERG current change (%, negative = inhibition) at 10uM": -54.2},
      {"molecule": "CCn1c(SCC(=O)NCCc2ccccc2)nnc1-c1cccs1", "hERG current change (%, negative = inhibition) at 10uM": -27.6},
      {"molecule": "COc1cc(/C=N/NC(=O)C2COc3ccccc3O2)ccc1O", "note": "(stereo not drawn)", "hERG current change (%, negative = inhibition) at 10uM": -44.3},
      {"molecule": "O=C(Nc1cnccn1)c1cccc(C(F)(F)F)c1", "hERG current change (%, negative = inhibition) at 10uM": -3.45},
      {"molecule": "COc1ccc(/C=N/Nc2ncnc3c2[nH]c2ccc(C)cc23)c(OC)c1OC", "hERG current change (%, negative = inhibition) at 10uM": 0.585},
      {"molecule": "COCc1cc(C)nc(Nc2ccccc2C)c1C#N", "hERG current change (%, negative = inhibition) at 10uM": 1.19},
      {"molecule": "CN(C)c1ccc(NC(=O)c2cn(-c3ccccc3)nc2-c2cccs2)cc1", "hERG current change (%, negative = inhibition) at 10uM": 6.26},
      {"molecule": "Cc1ccccc1CN1CCN(S(=O)(=O)c2ccc(F)cc2)CC1", "hERG current change (%, negative = inhibition) at 10uM": -6.15},
      {"molecule": "O=C(CSc1ccc2c(c1)OCCO2)NC(=O)Cc1ccccc1", "hERG current change (%, negative = inhibition) at 10uM": -2.78},
      {"molecule": "CCCCCCn1c(SCC(C)C)nc2c1c(=O)[nH]c(=O)n2C", "hERG current change (%, negative = inhibition) at 10uM": 10.3},
      {"molecule": "COc1ccccc1CNC(=O)CN1C(=O)NC2(CCCc3sccc32)C1=O", "note": "(stereo not drawn)", "hERG current change (%, negative = inhibition) at 10uM": -3.06},
      {"molecule": "CC(C)=CCc1c2c(c3occ(-c4ccc(O)cc4)c(=O)c3c1O)C=CC(C)(C)O2", "hERG current change (%, negative = inhibition) at 10uM": 20.3},
      {"molecule": "COc1cc2c(cc1NCc1ccccn1)oc1ccccc12", "hERG current change (%, negative = inhibition) at 10uM": -11},
      {"molecule": "Cc1cc(C)c2nc(SCC(=O)N(C)C3CCS(=O)(=O)C3)cc(C)c2c1", "note": "(stereo not drawn)", "hERG current change (%, negative = inhibition) at 10uM": 10.9},
      {"molecule": "O=C(CSc1nnc(COc2ccc(Br)cc2)o1)NC1CCCCC1", "hERG current change (%, negative = inhibition) at 10uM": 9.55},
      {"molecule": "COc1ccc(C(=S)N2CCOCC2)cc1OS(=O)(=O)c1ccc(Br)cc1", "hERG current change (%, negative = inhibition) at 10uM": -70},
      {"molecule": "O=C(Nc1ccccc1-c1ccccc1)c1cccs1", "hERG current change (%, negative = inhibition) at 10uM": -9},
      {"molecule": "Cc1ccc(C(=O)c2ccccc2C(=O)Nc2ccccc2)cc1", "hERG current change (%, negative = inhibition) at 10uM": 5.99},
      {"molecule": "C/C(=N\\NC(=S)NC(C)C)c1ccco1", "hERG current change (%, negative = inhibition) at 10uM": -2.14},
      {"molecule": "COc1ccc(C2CC(=O)C=C(NCc3ccc4c(c3)OCO4)C2)cc1", "note": "(stereo not drawn)", "hERG current change (%, negative = inhibition) at 10uM": -73.1},
      {"molecule": "COc1cc(S(=O)(=O)Nc2ccc(C)cc2)ccc1N=Cc1c(C)[nH]n(-c2ccc(C)cc2)c1=O", "hERG current change (%, negative = inhibition) at 10uM": 14.5},
      {"molecule": "NS(=O)(=O)c1ccc(CNC(=O)c2cc(-c3cccs3)nc3ccccc23)cc1", "hERG current change (%, negative = inhibition) at 10uM": 1.57},
      {"molecule": "CN1CCN(C(=O)c2ccc(-c3ccccc3)cc2)CC1", "hERG current change (%, negative = inhibition) at 10uM": -11.3},
      {"molecule": "Cc1cccc(CCNS(=O)(=O)c2ccc(S(=O)(=O)NC3CCCC3)cc2)c1", "hERG current change (%, negative = inhibition) at 10uM": 9.75},
      {"molecule": "O=C(CCS(=O)(=O)c1ccc(Br)cc1)N1CCN(c2ccccc2)CC1", "hERG current change (%, negative = inhibition) at 10uM": -39.8},
      {"molecule": "COC(=O)c1ccc(COc2ccc(C=O)cc2OC)o1", "hERG current change (%, negative = inhibition) at 10uM": 4.14},
      {"molecule": "CCN(CC)C(=O)Cn1cc(S(=O)(=O)Cc2cccc([N+](=O)[O-])c2)c2ccccc21", "hERG current change (%, negative = inhibition) at 10uM": -26.7},
      {"molecule": "CN(C)c1nc2ccccc2n(C)c1=O", "hERG current change (%, negative = inhibition) at 10uM": 10.5},
      {"molecule": "COc1ccc(Cl)cc1C(=O)NCC(C)C", "hERG current change (%, negative = inhibition) at 10uM": 3.05},
      {"molecule": "COc1ccc(-n2nc3c(N4CCC(C(=O)NCCc5ccccc5C)CC4)nnc(C)c3c2C)cc1", "hERG current change (%, negative = inhibition) at 10uM": 22.5}
    ]}
  ]
}
